Assay results: article PMC4336329 (PLoS ONE, 2015)
The whole screen tested about 310,000 compounds, of which about 2,200 (0.71%) showed an effect of 50% or more. Effects have a minus sign here. Some of the results follow.

Target: human ether-à-go-go-related gene (hERG) potassium channel (human, UniProt Q12809)
Test: primary screen, population patch clamp on CHO cells stably expressing hERG

Sequence of human ether-à-go-go-related gene (hERG) potassium channel (Q12809 whole entry, looked up): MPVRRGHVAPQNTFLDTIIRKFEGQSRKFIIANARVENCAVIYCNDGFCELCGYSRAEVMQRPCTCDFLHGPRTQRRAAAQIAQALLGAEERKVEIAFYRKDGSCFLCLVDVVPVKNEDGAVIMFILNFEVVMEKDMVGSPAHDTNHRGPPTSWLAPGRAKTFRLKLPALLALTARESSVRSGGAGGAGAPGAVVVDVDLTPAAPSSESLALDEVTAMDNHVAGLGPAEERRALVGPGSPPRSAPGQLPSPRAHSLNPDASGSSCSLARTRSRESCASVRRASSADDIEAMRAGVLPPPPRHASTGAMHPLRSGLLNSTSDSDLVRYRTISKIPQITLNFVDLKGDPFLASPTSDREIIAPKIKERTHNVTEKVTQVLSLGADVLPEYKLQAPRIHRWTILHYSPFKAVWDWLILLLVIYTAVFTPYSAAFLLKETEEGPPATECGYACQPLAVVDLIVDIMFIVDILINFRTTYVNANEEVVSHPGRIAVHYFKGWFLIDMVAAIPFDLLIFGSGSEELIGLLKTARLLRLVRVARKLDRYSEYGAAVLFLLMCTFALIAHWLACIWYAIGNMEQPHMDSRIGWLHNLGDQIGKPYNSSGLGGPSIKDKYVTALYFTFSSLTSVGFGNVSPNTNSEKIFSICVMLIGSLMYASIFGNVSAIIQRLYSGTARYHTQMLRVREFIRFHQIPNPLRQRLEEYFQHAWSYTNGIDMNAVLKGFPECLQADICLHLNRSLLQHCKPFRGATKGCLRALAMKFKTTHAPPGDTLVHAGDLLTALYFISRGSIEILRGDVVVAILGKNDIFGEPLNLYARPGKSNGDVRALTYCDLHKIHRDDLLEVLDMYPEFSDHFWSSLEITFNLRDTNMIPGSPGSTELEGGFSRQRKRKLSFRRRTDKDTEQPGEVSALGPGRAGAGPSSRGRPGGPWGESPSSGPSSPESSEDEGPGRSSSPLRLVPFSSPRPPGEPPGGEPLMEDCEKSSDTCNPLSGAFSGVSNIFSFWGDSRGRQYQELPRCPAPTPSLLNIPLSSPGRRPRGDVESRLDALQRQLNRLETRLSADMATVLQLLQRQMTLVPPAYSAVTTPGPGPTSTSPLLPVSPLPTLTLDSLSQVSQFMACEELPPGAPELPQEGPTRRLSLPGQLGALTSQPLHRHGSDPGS

SMILES	hERG current change (%, negative = inhibition) at 1uM [%]
Cc1cc(NC(=O)CSc2nc3ccccc3n2CC(=O)N2CCCCC2)no1	-5.08
Cc1nnc2sc(COc3ccccc3)nn2c1=O	14.2
Cc1ccc(NC(=O)/C=C\C(=O)NCC(=O)O)cc1	8.68
CCOc1ccccc1OCC(=O)Nc1cc(S(=O)(=O)N2CCCCC2)ccc1N1CCN(CC)CC1	-18.9
Cc1ccc(NC(=S)N2CCN(S(=O)(=O)c3ccc(C)cc3)CC2)cc1	12.9
CCC(C(=O)n1cccc1C#N)c1ccccc1C (centres unmarked)	13.1
OCCN(Cc1ccccc1)Cc1ccc(Cl)cc1Cl	-2.72
Cc1cc(=O)n(C)c(=O)n1CCCCCCN1CCCC1.O=C(O)C(=O)O	10.7
Cc1c(NC(=O)C(C)OC(=O)c2cc(Cl)ccc2O)c(=O)n(-c2ccccc2)n1C (centres unmarked)	12.4
NC(=O)c1cc(S(=O)(=O)Nc2cccc(F)c2)co1	8.52
O=C(CCCN=C1NS(=O)(=O)c2ccccc21)OCC(=O)c1ccccc1Cl	-1
Cc1noc(C)c1CNCc1ccccc1.O=C(O)C(=O)O	16
CCCCN(C(=O)c1cccc(-n2cccc2)c1)c1c(N)n(CCC)c(=O)[nH]c1=O	6.47
Cc1cc(Br)c2[nH]cc(CCNC(=O)c3ccco3)c2c1	7.84
O=C(CSc1nc2ccccc2[nH]1)NC1CCS(=O)(=O)C1 (centres unmarked)	6.46
CCOC(=O)C(O)(c1ccc(N(C)C(=O)c2ccc(Cl)c(Cl)c2)cc1)C(F)(F)F (centres unmarked)	0.321
Cc1ccc(S(=O)(=O)N2CCN(S(=O)(=O)c3ccc(C)cc3)C2c2ccccc2)cc1	3.23
COC(=O)c1ccc(C(=S)N2CCOCC2)cc1	3.15
Cc1ccc(S(=O)(=O)N2CN(Cc3ccco3)c3nc4ccccc4nc32)cc1C	11.5
COC(=O)c1ccc(C(=O)OCc2nc3cc4ccccc4cc3[nH]2)cc1	11
COc1ccc(C(=O)Nc2ccc(Nc3ccccc3)cc2)cc1OC	14.7
CCc1ccc(N(CC(=O)N2CCN(Cc3ccccc3)CC2)S(C)(=O)=O)cc1	4.79

SMILES	hERG current change (%, negative = inhibition) at 1uM [%]
O=C(NCC1CCCO1)c1ccc(CNS(=O)(=O)c2cccc(Cl)c2)cc1 (centres unmarked)	32.1
Cc1cc(Br)ccc1OCC(=O)NNC(=O)Cc1ccccc1	10.4
CCCCCC(O)(CCCCC)C(=O)NNc1ccccc1	4.1
Cc1ccsc1/C=C/C(=O)O	1.08
CC(C)CNC(=O)c1cccc(NC(=O)C2CCCO2)c1 (centres unmarked)	13.6
CC1CCCCC12NC(=O)N(CC(=O)NCCc1c[nH]c3ccccc13)C2=O (centres unmarked)	-14.8
CCCCN(Cc1ccco1)C(=O)C1CCCN(c2ncnc3c2nc2n3CCCCC2)C1 (centres unmarked)	-3.37
CCOC(=O)c1ccc(NC(=O)CN(Cc2ccc(Cl)cc2)S(C)(=O)=O)cc1	9.88
O=C(NC1CCCCCC1)c1cccc(N2CCCC2=O)c1	11.4
CCOC(=O)c1cc(NC(=O)c2c(C)noc2C)cc(C(=O)OCC)c1	-4.6
Cc1cccc(-c2onc3ccc(C4(C)OCCO4)cc23)c1	3.13
Cc1ccc(N2CC(C(=O)Nc3nnc(SCC(N)=O)s3)CC2=O)cc1 (centres unmarked)	11.5
O=C(CSc1nc(=O)n(CCCN2CCOCC2)c2c1CCCC2)Nc1ccccc1Cl	-6.82
O=C(CCCN1C(=O)/C(=C\c2cccs2)SC1=S)NNC(=O)c1ccncc1	4.39
CN(C)S(=O)(=O)c1ccc(NC(=O)COc2ncnc3c2cnn3-c2ccccc2)cc1	4.39
CCC(C)NC(=S)Nc1ccc(C(=O)OC)cc1 (centres unmarked)	15
O=C(NCCc1ccccc1)C1CCCN(S(=O)(=O)c2cccs2)C1 (centres unmarked)	-4.15
Cc1c(OCC(=O)NC(Cc2ccc(Cl)cc2)C(=O)O)ccc2c3c(c(=O)oc12)CCCC3 (centres unmarked)	15.8
O=C(CSc1nnc(CNC(=O)c2ccc(F)cc2)o1)c1ccccc1	14.1
Cc1cc(-c2ccc(C)c(S(=O)(=O)N3CCN(c4ccc(F)cc4)CC3)c2)on1	26.1
CS(=O)(=O)N1CCC(Oc2cccc(C(=O)NCCCC3CCCC3)c2)CC1	11.8
CCN(CC)S(=O)(=O)c1cc(C)c(C)cc1Br	12.9
